The list shows a part of the results.

This assay has as its target T1, MBP-FoxP1dN (Mus musculus, UniProt P58462 326-579).
T1 sequence: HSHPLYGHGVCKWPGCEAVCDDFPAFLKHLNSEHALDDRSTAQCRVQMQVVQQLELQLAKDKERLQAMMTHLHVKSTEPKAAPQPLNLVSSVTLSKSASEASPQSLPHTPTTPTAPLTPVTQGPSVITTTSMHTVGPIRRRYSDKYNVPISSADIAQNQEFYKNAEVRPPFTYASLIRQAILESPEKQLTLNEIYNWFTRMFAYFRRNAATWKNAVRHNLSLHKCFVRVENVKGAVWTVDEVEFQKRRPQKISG
Kind of assay: PD-seq (MBP pull-down with sequencing); 20 mM Tris-HCl pH 7.5, 100 mM NaCl, 1.5 mM MgCl2, 0.4 uM protein, 0.1 uM dsDNA library, 30 min, room temperature, amylose pull-down; high values mean tight binding. The settings on record: protein: recombinant; tags: His6-MBP; chain copies: 2; dsDNA, one strand shown. The essentials: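 His6-MBP-tagged mouse FoxP3 or FoxP1 fragment lacking the N-terminus, expressed in E. coli, was mixed at 0.4 µM with 0.1 µM Klenow-filled double-stranded degenerate DNA library. Incubation was 30 min at room temperature in Tris pH 7.5 buffer with NaCl and MgCl2. Complexes were caught on amylose resin and washed three times; DNA was released with proteinase K, PCR-barcoded and Illumina-sequenced. Binding is reads-per-million enrichment, pull-down over input, with replicates pooled.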
For the sequence “GATGATTGTTCTCCCAGCTGATGAATTGGGACAATCGAGTAAACAAATTTTCCTAATCTTTCTGTTCAAGCGCCATCTAC”, the binding signal was 1.26 RPM ratio (pull-down/input). Turning to “GATGATTGTTCTCCCAGCTGATGAATTCATCAGCTCGAGTAAACAAATTTTCCTAATCTTTCTGTTCAAGCGCCATCTAC”, the binding signal was 0.818 RPM ratio (pull-down/input). In the case of “GATGATTGTTCTCCCAGCTGATGAATTGCACCCATCGAGTAAACAAATTTTCCTAATCTTTCTGTTCAAGCGCCATCTAC” it was 1.18 RPM ratio (pull-down/input); in that of “GATGATTGTTCTCCCAGCTGATGAATTTCCAGCGTCGAGTAAACAAATTTTCCTAATCTTTCTGTTCAAGCGCCATCTAC”, 0.868 RPM ratio (pull-down/input). With “GATGATTGTTCTCCCAGCTGATGAATTAGGTAGATCGAGTAAACAAATTTTCCTAATCTTTCTGTTCAAGCGCCATCTAC” the figure was 0.974 RPM ratio (pull-down/input).

“GATGATTGTTCTCCCAGCTGATGAATTTTTGTATTCGAGTAAACAAATTTTCCTAATCTTTCTGTTCAAGCGCCATCTAC”: the binding signal was 1.8 RPM ratio (pull-down/input). As for “GATGATTGTTCTCCCAGCTGATGAATTCCGCACTTCGAGTAAACAAATTTTCCTAATCTTTCTGTTCAAGCGCCATCTAC”, the binding signal is 0.843 RPM ratio (pull-down/input). In the case of “GATGATTGTTCTCCCAGCTGATGAATTAGTGTACTCGAGTAAACAAATTTTCCTAATCTTTCTGTTCAAGCGCCATCTAC” it was 1.18 RPM ratio (pull-down/input); in that of “GATGATTGTTCTCCCAGCTGATGAATTAACTTCCTCGAGTAAACAAATTTTCCTAATCTTTCTGTTCAAGCGCCATCTAC”, 0.903 RPM ratio (pull-down/input). With “GATGATTGTTCTCCCAGCTGATGAATTTCGCTTATCGAGTAAACAAATTTTCCTAATCTTTCTGTTCAAGCGCCATCTAC” the figure was 0.997 RPM ratio (pull-down/input); with “GATGATTGTTCTCCCAGCTGATGAATTCCGTCTGTCGAGTAAACAAATTTTCCTAATCTTTCTGTTCAAGCGCCATCTAC”, 0.835 RPM ratio (pull-down/input); with “GATGATTGTTCTCCCAGCTGATGAATTTCAGTATTCGAGTAAACAAATTTTCCTAATCTTTCTGTTCAAGCGCCATCTAC”, 0.936 RPM ratio (pull-down/input). For the sequence “GATGATTGTTCTCCCAGCTGATGAATTAGATTACTCGAGTAAACAAATTTTCCTAATCTTTCTGTTCAAGCGCCATCTAC”, the binding signal is 1.04 RPM ratio (pull-down/input). For “GATGATTGTTCTCCCAGCTGATGAATTCTCACGATCGAGTAAACAAATTTTCCTAATCTTTCTGTTCAAGCGCCATCTAC”, the binding signal is 0.795 RPM ratio (pull-down/input).

Consider “GATGATTGTTCTCCCAGCTGATGAATTGATTATATCGAGTAAACAAATTTTCCTAATCTTTCTGTTCAAGCGCCATCTAC”, for which the binding signal was 1.26 RPM ratio (pull-down/input). Take “GATGATTGTTCTCCCAGCTGATGAATTTATCAACTCGAGTAAACAAATTTTCCTAATCTTTCTGTTCAAGCGCCATCTAC”: the binding signal was 1.26 RPM ratio (pull-down/input). With “GATGATTGTTCTCCCAGCTGATGAATTATCGTAATCGAGTAAACAAATTTTCCTAATCTTTCTGTTCAAGCGCCATCTAC” the figure was 1.54 RPM ratio (pull-down/input).

Regarding “GATGATTGTTCTCCCAGCTGATGAATTCGGTCCATCGAGTAAACAAATTTTCCTAATCTTTCTGTTCAAGCGCCATCTAC”, the binding signal is 0.857 RPM ratio (pull-down/input).

As for “GATGATTGTTCTCCCAGCTGATGAATTCTGATTTTCGAGTAAACAAATTTTCCTAATCTTTCTGTTCAAGCGCCATCTAC”, the binding signal is 1.03 RPM ratio (pull-down/input). With “GATGATTGTTCTCCCAGCTGATGAATTTTGTGCATCGAGTAAACAAATTTTCCTAATCTTTCTGTTCAAGCGCCATCTAC” the figure was 1.35 RPM ratio (pull-down/input). For the sequence “GATGATTGTTCTCCCAGCTGATGAATTTTCAGTATCGAGTAAACAAATTTTCCTAATCTTTCTGTTCAAGCGCCATCTAC”, the binding signal is 1.02 RPM ratio (pull-down/input). “GATGATTGTTCTCCCAGCTGATGAATTGCAGATGTCGAGTAAACAAATTTTCCTAATCTTTCTGTTCAAGCGCCATCTAC”: the binding signal is 1.27 RPM ratio (pull-down/input). With “GATGATTGTTCTCCCAGCTGATGAATTCACTATTTCGAGTAAACAAATTTTCCTAATCTTTCTGTTCAAGCGCCATCTAC” the figure was 1.04 RPM ratio (pull-down/input). On to “GATGATTGTTCTCCCAGCTGATGAATTCAAGGAATCGAGTAAACAAATTTTCCTAATCTTTCTGTTCAAGCGCCATCTAC”, for which the binding signal was 0.926 RPM ratio (pull-down/input). On to “GATGATTGTTCTCCCAGCTGATGAATTCACGAAATCGAGTAAACAAATTTTCCTAATCTTTCTGTTCAAGCGCCATCTAC”, for which the binding signal is 1.03 RPM ratio (pull-down/input). In the case of “GATGATTGTTCTCCCAGCTGATGAATTGAATTCTTCGAGTAAACAAATTTTCCTAATCTTTCTGTTCAAGCGCCATCTAC” it was 0.839 RPM ratio (pull-down/input); in that of “GATGATTGTTCTCCCAGCTGATGAATTTCCTTAATCGAGTAAACAAATTTTCCTAATCTTTCTGTTCAAGCGCCATCTAC”, 0.949 RPM ratio (pull-down/input); in that of “GATGATTGTTCTCCCAGCTGATGAATTAATGTTTTCGAGTAAACAAATTTTCCTAATCTTTCTGTTCAAGCGCCATCTAC”, 2.45 RPM ratio (pull-down/input). For “GATGATTGTTCTCCCAGCTGATGAATTTAATGGCTCGAGTAAACAAATTTTCCTAATCTTTCTGTTCAAGCGCCATCTAC”, the binding signal was 0.867 RPM ratio (pull-down/input). With “GATGATTGTTCTCCCAGCTGATGAATTAAAGTAGTCGAGTAAACAAATTTTCCTAATCTTTCTGTTCAAGCGCCATCTAC” the figure was 0.886 RPM ratio (pull-down/input). With “GATGATTGTTCTCCCAGCTGATGAATTGGTTTGTTCGAGTAAACAAATTTTCCTAATCTTTCTGTTCAAGCGCCATCTAC” the figure was 1.13 RPM ratio (pull-down/input); with “GATGATTGTTCTCCCAGCTGATGAATTCTAGAATTCGAGTAAACAAATTTTCCTAATCTTTCTGTTCAAGCGCCATCTAC”, 0.916 RPM ratio (pull-down/input). With “GATGATTGTTCTCCCAGCTGATGAATTCCGGTAATCGAGTAAACAAATTTTCCTAATCTTTCTGTTCAAGCGCCATCTAC” the figure was 1.11 RPM ratio (pull-down/input); with “GATGATTGTTCTCCCAGCTGATGAATTTGCCTACTCGAGTAAACAAATTTTCCTAATCTTTCTGTTCAAGCGCCATCTAC”, 0.998 RPM ratio (pull-down/input); with “GATGATTGTTCTCCCAGCTGATGAATTGTCAAATTCGAGTAAACAAATTTTCCTAATCTTTCTGTTCAAGCGCCATCTAC”, 1.09 RPM ratio (pull-down/input). Turning to “GATGATTGTTCTCCCAGCTGATGAATTTCCTATCTCGAGTAAACAAATTTTCCTAATCTTTCTGTTCAAGCGCCATCTAC”, the binding signal is 0.822 RPM ratio (pull-down/input). In the case of “GATGATTGTTCTCCCAGCTGATGAATTCCCGACCTCGAGTAAACAAATTTTCCTAATCTTTCTGTTCAAGCGCCATCTAC”, the binding signal is 0.731 RPM ratio (pull-down/input). With “GATGATTGTTCTCCCAGCTGATGAATTTGACAACTCGAGTAAACAAATTTTCCTAATCTTTCTGTTCAAGCGCCATCTAC” the figure was 0.984 RPM ratio (pull-down/input); with “GATGATTGTTCTCCCAGCTGATGAATTCAAACTATCGAGTAAACAAATTTTCCTAATCTTTCTGTTCAAGCGCCATCTAC”, 1.03 RPM ratio (pull-down/input); with “GATGATTGTTCTCCCAGCTGATGAATTTTTACATTCGAGTAAACAAATTTTCCTAATCTTTCTGTTCAAGCGCCATCTAC”, 0.983 RPM ratio (pull-down/input).

The values are drawn from paper PMC12820563, “FoxP3 forms a head-to-head dimer in vivo and stabilizes its multimerization on adjacent microsatellites”.
